The values below come from US20210171576A1, “METHODS FOR TREATING CANCER WITH ACYLDEPSIPEPTIDE ANALOGS” (priority 2018, published 2021).

One test has as its system HEK293 T-REx WT cells. As to the kind of experiment: Cellular respiration analysis (Seahorse XF, OXPHOS). It is filed as cell-based, human. Particulars: 1 μM, 24 hours, relative to DMSO-treated WT cells.
In the next test the target is T1, HsCIpP (Homo sapiens, UniProt Q16740, P57S).
T1 construct: 2x(His6-thrombin)-SUMO (N, cleaved yes); made in house; host or cells: E. coli (SG1146 stated for HsClpP; 'a similar protocol' for HsClpX)
As to the kind of experiment: Protease activity assay (casein-FITC degradation) with ADEP, independent of HsCIpX. In kind it is biochemical. The following applies: 3 μM HsCIpP. As to the method: The protease activity of purified HsCIpP was assessed by monitoring the degradation of bovine milk casein labelled with fluorescein isothiocyanate (casein-FITC) (Sigma-Aldrich) in the presence of ADEP and/or purified HsCIpX. All reactions were carried out in 25 mM HEPES, pH 7.5, 35 mM KCl, 25 mM MgCl2, 0.03% Tween-20, 10% glycerol, and 1 mM DTT, supplemented with 16 mM creatine phosphate and 300 μM ATP. HsCIpP was used at 3 μM (final monomeric concentration) and casein-FITC was added at the final concentration of 10 μM. 13 U of creatine phosphokinase (Sigma-Aldrich) was also added for ATP regeneration. DMSO was present at 1% (v:v) final concentration in the experiments that involve the use of ADEP analogs. All reactions were carried out with 150 μL of the reaction mix per well in a 96-well black flat-bottom plate at 37° C. Degradation of casein-FITC and subsequent release of the free FITC moiety was monitored by fluorescence with λex=494 nm and λem=518 nm using the EnSpire 2300 Multilabel Reader set to perform a reading every 40 s with 20 flashes. A total of 100 readings were collected in each experiment. […]
The effect of ADEP in activating HsCIpP was assessed via the degradation of casein-FITC by HsCIpP independent of HsCIpX. […] Initial rates data were collected and analyzed using the Hill equation above to determine Vmax, h and K0.5 for each ADEP analog. […]

The test system of test [1] is HEK293 T-REx ΔCLPX* cells. As to the kind of experiment: Cytotoxicity, SRB staining, CLPX-disrupted cells. The following applies: HsCIpX expression reduced by ≥97%. In general terms: Sulforhodamine B stains cellular protein and so reports cell mass.

Where a SMILES comes first, the peptide text is derived from it. Bridges are numbered along the chain shown (N, C = ends). [ ]: non-standard residue; d: D form. The star is where a group is joined. Phe(3,5-F2) = N[C@@H](Cc1cc(F)cc(F)c1)C(=O)O; Pip(4S-Me) = C[C@H]1CCN[C@H](C(=O)O)C1; Heptenoyl(2E) = CCCC/C=C/C(=O)*; aThr = C[C@H](O)[C@H](N)C(=O)O

T1 sequence (Q16740 57-277 P57S): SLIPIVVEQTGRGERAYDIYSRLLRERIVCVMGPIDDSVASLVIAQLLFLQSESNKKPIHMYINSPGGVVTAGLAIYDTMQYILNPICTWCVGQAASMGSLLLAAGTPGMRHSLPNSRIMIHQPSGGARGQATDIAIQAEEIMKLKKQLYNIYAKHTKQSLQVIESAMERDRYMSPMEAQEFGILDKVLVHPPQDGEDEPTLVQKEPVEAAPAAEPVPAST

For the compound `CCCC/C=C/C(=O)N[C@@H](Cc1cc(F)cc(F)c1)C(=O)N[C@@H]1C(=O)N2CCC[C@H]2C(=O)N2CC[C@H](C)C[C@H]2C(=O)N[C@@H](C)C(=O)N2CCC[C@H]2C(=O)O[C@H]1C` [ADEP-28] ({Heptenoyl(2E)}-[Phe(3,5-F2)][aThr]P[Pip(4S-Me)]AP; ester 2-C), in the test on HEK293 T-REx WT cells, the “reduction in oxygen consumption rate (OCR) associated with ATP synthase activity” value is reported as ~91% and the “reduction in oxygen consumption rate (OCR) associated with basal respiration” value is on record as ~86%. The Kd at HsCIpP (10 μM casein-FITC, no HsCIpX, read-out: K0.5 (microscopic apparent dissociation constant), protease activity) is 120 nM. Besides, at HsCIpP (casein-FITC, among five ADEP analogs), the “Hill coefficient, protease activity” value is “highest Hill coefficient”. Besides, the “impact of reduced HsCIpX levels on sensitivity” value in test [1] is recorded as “no statistically significant impact”.
